In article doi:10.1101/2021.04.11.439330 (bioRxiv, 2021):

Target: the molecule itself
Assay: PIE-FCCS

B1: EphA4 receptor (receptor)
chain: not shown
stoichiometry N: 2
